Here are results for 31 compounds from PubChem BioAssay AID1745853 (National Center for Advancing Translational Sciences (NCATS), 2022).

Where “and” joins values, the source holds several entries; their conditions need not be identical. Equal entries are not always repeated. Some of the results follow. The main result of the screen is listed elsewhere. These columns were measured beside it and carry no call.

Assay in all cases: Primary Screen for Target Class Profiling of Small Molecule Inhibitors of Methyltransferases
In experiment [1] the target is Glycine N-methyltransferase (Homo sapiens) (UniProt Q14749). The following applies: purified enzyme, MTase-Glo SAH luminescence; measured here: GNMT inhibition; at 40 µM; stronger effect = lower value. An outline of the steps: (§1)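 Each enzyme was assayed with SAM and its substrate. SAH formation detected by MTase-Glo luminescence; single-point 40 uM screen[…].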

The target in experiment [2] is Guanidinoacetate N-methyltransferase (Homo sapiens) (UniProt Q14353). The following applies: purified enzyme, MTase-Glo SAH luminescence; measured here: GAMT inhibition; at 40 µM; stronger effect = lower value. The essentials:
as §1

Experiment [3] addresses Histamine N-methyltransferase (Homo sapiens) (UniProt P50135). The following applies: purified enzyme, MTase-Glo SAH luminescence; measured here: HNMT inhibition; at 40 µM; stronger effect = lower value. The essentials:
as §1

Experiment [4] concerns the target Nicotinamide N-methyltransferase (Homo sapiens) (UniProt P40261). The following applies: purified enzyme, MTase-Glo SAH luminescence; measured here: NNMT inhibition; at 40 µM; stronger effect = lower value. An outline of the steps: as §1
The target in experiment [5] is Phenylethanolamine N-methyltransferase (Homo sapiens) (UniProt P11086). The note with it: purified enzyme, MTase-Glo SAH luminescence; measured here: PNMT inhibition; at 40 µM; stronger effect = lower value. An outline of the steps: as §1
% is set by controls: 0 for no effect and ±100 for the full control effect.

In the case of `FC(F)(F)CN1C2CCC1CN(c1cncc(Cl)n1)C2`, the activity change, negative = inhibition is -4.81% in experiment [1]; -2.51% in experiment [2]; -2.27% in experiment [3]; -8.26% in experiment [4]; -1.72% in experiment [5].
For the compound `O=C(Nc1ccccc1)O[C@@H]1CO[C@H]2[C@@H]1OC[C@@H]2NC(=S)Nc1ccc(F)cc1`, the activity change, negative = inhibition in experiment [1] was -2.95%; in experiment [2] it was -0.726%; in experiment [3], 1.17%; in experiment [4], -2.45%; in experiment [5], -2.65%.
As to `CCOc1ccn(-c2ccc(F)cc2)c(=O)c1C(=O)Nc1ccc(Oc2ccnc(N)c2Cl)c(F)c1`, the activity change, negative = inhibition is -0.699% in experiment [1]; 5.84% in experiment [2]; 8.69% in experiment [3]; -22% in experiment [4]; 2.51% in experiment [5].
In the same order, the values of `CCC(=O)NS(=O)(=O)c1ccc(-c2c(-c3ccccc3)noc2C)cc1` are 7.18%, 0.248%, 12.2%, -14.6% and 1.65%.
On to `Cc1ccc(C(=O)N2CCCCCNC(=O)CC2c2ccccc2)s1` (centres undefined), for which the activity change, negative = inhibition in experiment [1] was -0.72%; in experiment [2], 0.303%; in experiment [3], 1.71%; in experiment [4], -7.82%; in experiment [5], -0.467%.
As for `COCCc1ccc(OCc2ccccc2-c2ccc(=O)n(C)n2)cc1`, the activity change, negative = inhibition in experiment [1] was -5.97%; in experiment [2] it was -11.6%; in experiment [3], -5.22%; in experiment [4] it was -13.6%; in experiment [5], -10.4%.
In the case of `O=C(NCCCc1ccccc1)c1cccc(-c2cc(O)c3ncccc3c2)c1`, the activity change, negative = inhibition in experiment [1] is 7.24% and -0.793%; in experiment [2], -26.5%; in experiment [3], 8.37% and 3.95%; in experiment [4], -8.14% and -38.5%; in experiment [5], -8.03% and -11.2%.
Take `CCn1cc(-c2ccnc3[nH]c(-c4cccc(CN(C)C)c4)cc23)c(-c2ccc(NC(=O)N(C)C)cc2)n1`: the activity change, negative = inhibition in experiment [1] was -20.5% and -17.8%; in experiment [2], -4.78%; in experiment [3], -73% and -75.1%; in experiment [4], 0.96% and -24.2%; in experiment [5], 32.3% and -20.9%.
With `Cc1nc(Nc2n[nH]c3c2CN(C(=O)N[C@H](CN(C)C)c2ccccc2)C3(C)C)c2sccc2n1`, the activity change, negative = inhibition in experiment [1] was -3.67%; in experiment [2], 3.92%; in experiment [3] it was -54.4%; in experiment [4] it was -33.9%; in experiment [5], 1.6%.
In the case of `CC(C)(F)C[C@@H](N[C@@H](c1ccc(-c2ccc(S(C)(=O)=O)cc2)cc1)C(F)(F)F)C(=O)NC1(C#N)CC1`, the activity change, negative = inhibition amounted to 4.58% in experiment [1] and 7.86% in experiment [3].
For the compound `CC1(C(=O)NC2CCCC2)Cn2c(ccc2-c2ccco2)C(=O)N1CCCN1CCCCC1` (centres undefined), the activity change, negative = inhibition in experiment [1] was 3.77%; in experiment [2], 0.642%; in experiment [3] it was -3.04%; in experiment [4], 9.17%; in experiment [5], 1.96%.
Take `CN(C)CCNC(=O)c1cc2n(n1)CC(C)(C(=O)NCc1ccccc1)N(C)C2=O` (centres undefined): the activity change, negative = inhibition in experiment [1] was 4.37%; in experiment [2] it was 3.91%; in experiment [3], 3.65%; in experiment [4], -2.14%; in experiment [5], -1.67%.
`CCOC(=O)C(CCc1ccccc1)NC1CSC(c2cccs2)CN(CC(=O)O)C1=O` (centres undefined): the activity change, negative = inhibition is -12.3% in experiment [1] and 3.83% in experiment [3].
Turning to `CCCCCCN(CCCCCC)C(=O)Cc1c(-c2ccc(F)cc2)[nH]c2ccccc12`, the activity change, negative = inhibition is -14.2% in experiment [1]; 5.01% in experiment [2]; -0.505% in experiment [3]; -9.94% in experiment [4]; 1.12% in experiment [5].
Take `CCN(CC)CCNC(=O)c1ccc(NC(C)=O)cc1`: the activity change, negative = inhibition in experiment [1] was 7.81%; in experiment [2], 6.62%; in experiment [3], 8.48%; in experiment [4] it was -10.4%; in experiment [5], 2.25%.
Take `O=C(CCn1ccc2cc(S(=O)(=O)N3CCCCC3)ccc21)NCc1ccc(F)cc1`: the activity change, negative = inhibition in experiment [1] amounted to 6.49%; in experiment [2], 5.26%; in experiment [3] it was 7.33%; in experiment [4], 4.98%; in experiment [5], 2.23%.
Take `N[C@@H](Cc1cnc[nH]1)C(=O)O`: the activity change, negative = inhibition in experiment [1] was 8.99%; in experiment [2] it was 14%; in experiment [3], 13.5%; in experiment [4], -3.17%; in experiment [5], 2.78%.
For the compound `CC1(C(=O)NC2CCCCCC2)Cn2c(nc3ccccc32)C(=O)N1C1CCCCCC1` (centres undefined), the activity change, negative = inhibition in experiment [1] was -3.45%; in experiment [2], 0%; in experiment [3], 2.79%; in experiment [4], 4.88%; in experiment [5] it was -1.02%.
As to `CN(Cc1cccc(OC(F)(F)F)c1)C(=O)C1(c2ccc(Cl)cc2)CCOCC1`, the activity change, negative = inhibition in experiment [1] was -7.5%; in experiment [2] it was -5.66%; in experiment [3] it was -4.77%; in experiment [4] it was -20.2%; in experiment [5] it was -5.37%.
Take `Cc1ccc(CCN2C(=O)c3cc4ccccc4n3CC2(C)C(=O)NCCC(C)C)cc1` (centres undefined): the activity change, negative = inhibition was 9.05% in experiment [1]; 4.41% in experiment [2]; 9.65% in experiment [3]; 10.1% in experiment [4]; 3.29% in experiment [5].
Turning to `CN1CC2(CCN(C(=O)c3cccn3C)CC2)CC(c2ccccc2)C1=O` (centres undefined), the activity change, negative = inhibition in experiment [1] is -4.35%; in experiment [2], -3.87%; in experiment [3], -1.42%; in experiment [4] it was -3.9%; in experiment [5], 12.7%.
Consider `CCOc1ccc(CCN2C(=O)c3ccc(-c4ccccc4)n3CC2(C)C(=O)NC2CCCC2)cc1` (centres undefined), for which the activity change, negative = inhibition in experiment [1] stood at 4.07%; in experiment [2] it was 0.258%; in experiment [3], 7.4%; in experiment [4], 5.55%; in experiment [5], 3.65%.
For `O=C(c1n[nH]c2ccccc12)N1CCC(Cc2nc(-c3ccncc3)n[nH]2)CC1`, the activity change, negative = inhibition in experiment [1] was -8.34%; in experiment [2] it was -5.53%; in experiment [3], -1.03%; in experiment [4], -12.7%; in experiment [5], 5.33%.
For `CC(C)Cn1c(=O)c2ccc(C(=O)NC3CCCC3)cc2n2c(=O)n(CC(=O)c3ccccc3)nc12`, the activity change, negative = inhibition in experiment [1] came out at 3.58%; in experiment [2] it was 0%; in experiment [3], 5.88%; in experiment [4], 4.14%; in experiment [5], 4.37%.
As for `CNC(=O)c1cccc(-c2cnc(Nc3ccc(Cl)cn3)c3c2CCO3)c1`, the activity change, negative = inhibition was -15.1% in experiment [1]; -11.8% in experiment [2]; -10.7% in experiment [3]; -19.7% in experiment [4]; -0.449% in experiment [5].
On to `Cc1ccccc1S(=O)(=O)N1CCCC2(C1)Nc1cccnc1NC2=NC1CCCC1` (centres undefined), for which the activity change, negative = inhibition is -5.05% in experiment [1]; -4.59% in experiment [2]; -8.24% in experiment [3]; -33.6% in experiment [4]; -3.46% in experiment [5].
In the same order, the values of `CC(NC(=O)CN1C(=O)NC2(CCS(=O)(=O)CC2)C1=O)c1ccccc1` (centres undefined) are -0.012%, -1.01%, 1.28%, -0.448% and 2.96%.
Consider `C[C@@H]1CN(c2ccc(C(=O)N3CCC(N4CCOCC4)CC3)cn2)C[C@H](C)O1`, for which the activity change, negative = inhibition was -2.28% in experiment [1]; -7.07% in experiment [2]; -0.76% in experiment [3]; -3.17% in experiment [4]; 1.92% in experiment [5].
With `O=[S+]([O-])(c1ccccc1)N1CC(Oc2ccc(F)c(F)c2)C1`, the activity change, negative = inhibition in experiment [1] is -6.32%; in experiment [2], -8.81%; in experiment [3] it was -1.73%; in experiment [4], -24.3%; in experiment [5], -15.3%.
`O=C(CCCc1nnc2n3nc(-c4ccccc4)nc3c3ccccc3n12)NC1CCN(Cc2ccccc2)CC1`: the activity change, negative = inhibition in experiment [1] is -0.541%; in experiment [2] it was 0.422%; in experiment [3], -20.4%; in experiment [4], 9.36%; in experiment [5] it was -0.202%.
Turning to `C=C(CO[C@@H]1O[C@H](CO[C@@H]2OC[C@](O)(CO)[C@H]2O)[C@@H](O)[C@H](O)[C@H]1O)C1Cc2cc(C(C)=O)ccc2O1` (some centres undefined), the activity change, negative = inhibition in experiment [1] was 1%; in experiment [2], -1.33%; in experiment [3], 3.88%; in experiment [4], -10.2%; in experiment [5], 3.18%.
